Measured values from PubChem BioAssay AID1159614 (National Center for Advancing Translational Sciences (NCATS), 2016).
About 65 (0.1%) of roughly 45,000 compounds were called active. The call rests on the fitted dose curve; in most records, active means well fitted activation curve with a large enough effect; inconclusive means small, poorly fitted or top-dose-only effect; inactive means no such curve, though single readings can be large or run the other way. This is one part of the list.

target: Galactocerebrosidase (Homo sapiens) (UniProt P54803); assay: A Novel Cell-Based Assay to Identify Small Molecules for B -Galactocerebrosidase; details: 145M-Twi-hGALC-G270D cells (Twitcher mouse brain line with human GALC G270D), HMU-beta-Gal fluorescence, 48 h; series mostly up to 57.5 µM; activation: at the top concentration; further: 0% is about no effect; nearly all actives have a fitted effect of over 65% in size
UniProt P54803, sequence (P54803 whole entry, looked up): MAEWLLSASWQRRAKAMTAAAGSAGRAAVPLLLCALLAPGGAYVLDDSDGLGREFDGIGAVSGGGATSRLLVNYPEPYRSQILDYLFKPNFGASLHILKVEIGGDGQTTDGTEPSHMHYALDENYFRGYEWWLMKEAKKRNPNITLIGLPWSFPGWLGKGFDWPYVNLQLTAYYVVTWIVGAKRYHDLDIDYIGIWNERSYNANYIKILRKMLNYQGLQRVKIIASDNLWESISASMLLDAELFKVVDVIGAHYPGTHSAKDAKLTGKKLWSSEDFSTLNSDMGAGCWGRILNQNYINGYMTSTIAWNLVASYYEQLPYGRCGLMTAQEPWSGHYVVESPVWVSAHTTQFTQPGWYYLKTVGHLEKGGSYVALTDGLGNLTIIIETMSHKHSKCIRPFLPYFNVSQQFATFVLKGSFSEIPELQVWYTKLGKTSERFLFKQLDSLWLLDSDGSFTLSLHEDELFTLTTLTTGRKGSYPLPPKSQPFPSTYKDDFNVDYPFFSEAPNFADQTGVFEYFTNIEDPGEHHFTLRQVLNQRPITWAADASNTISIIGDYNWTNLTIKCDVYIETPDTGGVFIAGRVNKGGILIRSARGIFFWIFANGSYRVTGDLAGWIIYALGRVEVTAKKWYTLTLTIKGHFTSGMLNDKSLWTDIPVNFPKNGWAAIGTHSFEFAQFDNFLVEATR
In short: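 Brain-derived Twitcher mouse 145M-Twi cells stably expressing human GALC-G270D or wild-type GALC, treated live, then residual GALC activity read by fluorescence of HMU-b-Gal substrate (0.1 mM final) in citrate-phosphate buffer pH 5.2 with sodium taurocholate. Signal increase indicates enhancement.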

Q: Cc1oc(-c2cccc(Cl)c2)nc1CN1CCCC(C(=O)NCc2ccc(F)cc2)C1 (stereo not drawn) was tested. Which “activation” value did it give?
A: inactive: -11.7%

Q: With CCCCN(C)C(=O)C(Cc1ccccc1)NS(=O)(=O)c1ccc2c(c1)c(=O)n(C)c(=O)n2C (stereo not drawn) as the compound, how does the “activation” value read?
A: inactive: 21.5%

Q: COc1ccc(-c2nnc(SCC(=O)Oc3c(C)cccc3C)o2)cc1OC was tested. Which “activation” value did it give?
A: inactive: -3.98%

Q: With Cc1coc2c1c(C)cc1oc(=O)cc(C)c12 as the compound, how does the “activation” value read?
A: inactive: -24.3%

Q: How did the “activation” value turn out when Cc1ccccc1CNC(=O)c1ccc(-c2nc(CS(=O)(=O)c3ccccc3)c(C)o2)cc1 was run?
A: inactive: -3.53%

Q: Which “activation” value does the source give for CCOC(=O)C1=C(CS(=O)(=O)c2ccc(Br)cc2)NC(=O)NC1c1ccccc1 (stereo not drawn) here?
A: inactive: -15.2%

Q: How did the “activation” value turn out when COC(=O)c1cc(NC(=O)Cn2nc(C)n3cccc3c2=O)cc(C(=O)OC)c1 was run?
A: inactive: -5.1%

Q: With CCC(C)NC(=O)c1ccc(-n2c(-c3ccccc3)cc3c2CCCC3)cc1 (stereo not drawn) as the compound, how does the “activation” value read?
A: inactive: -8.34%

Q: Which “activation” value does the source give for Cc1ccc(-c2c(C(=O)NCc3ccccc3)oc(=O)c3ccccc23)cc1 here?
A: inactive: -21.9%

Q: With COc1cc(NC(=O)c2cc(Cl)c(OC)c(Cl)c2)ccc1NC(=O)c1cc2ccccc2o1 as the compound, how does the “activation” value read?
A: inactive: -11.4%

Q: CC(=O)c1c(C)oc2ccc(N(C(=O)Oc3ccccc3)S(=O)(=O)c3ccc(C(C)(C)C)cc3)cc12 was tested. Which “activation” value did it give?
A: inactive: -7.23%

Q: For COc1ccc(C)cc1NC(=O)CN(c1cc(C(F)(F)F)ccc1Cl)S(C)(=O)=O, which “activation” value is on record?
A: inactive: -7.08%

Q: CCc1cccc(C)c1NC(=O)c1cc(C)nc2c1c(C)nn2-c1cccc(Cl)c1C was tested. Which “activation” value did it give?
A: inactive: -6.74%

Q: How did the “activation” value turn out when CN1c2ccccc2-c2nc(SCC(=O)Nc3ccccc3C(F)(F)F)ncc2S1(=O)=O was run?
A: inactive: -4.97%

Q: How did the “activation” value turn out when Cc1ccc(CN2CCCn3nc(C(=O)NCCc4ccc(Cl)cc4)cc3C2=O)cc1 was run?
A: inactive: -10.1%

Q: Which “activation” value does the source give for COc1ccc2c(c1)-c1nc(NC(=O)c3cc(Cl)ccc3OC)sc1CC2 here?
A: inactive: -19.1%

Q: Cc1cc(OC(=O)c2cc(-c3ccc4c(c3)OCCO4)on2)ccc1Cl was tested. Which “activation” value did it give?
A: inactive: -9.26%

Q: COc1ccccc1CNC(=O)CCn1c(=O)c2ccccc2n(CC(=O)Nc2ccc(C)cc2C)c1=O was tested. Which “activation” value did it give?
A: inactive: -13.1%

Q: CCN(Cc1ccccc1)C(=O)Cn1c(=O)n(Cc2ccccc2)c(=O)c2c1c1cc(OC)ccc1n2C was tested. Which “activation” value did it give?
A: inactive: 5.48%

Q: With O=C(NCC(c1cccnc1)N1CCN(Cc2ccccc2)CC1)C(=O)Nc1ccc(Cl)cc1 (stereo not drawn) as the compound, how does the “activation” value read?
A: inactive: -13.3%

Q: COc1ccc(C(CC(=O)Nc2ccc(C)c(C)c2)N2Cc3ccccc3C2=O)cc1OC (stereo not drawn) was tested. Which “activation” value did it give?
A: inactive: -5.44%

Q: With Cc1ccc(CSc2nc3ccc(NC(=O)C(C)C)cc3s2)cc1 as the compound, how does the “activation” value read?
A: inactive: -12.1%

Q: How did the “activation” value turn out when Cc1nc(CC(=O)Nc2cccc(C)c2C)cs1 was run?
A: inactive: 2.87%

Q: CC(=O)c1cccc(S(=O)(=O)NCCc2csc3nc(-c4ccc(F)cc4)nn23)c1 was tested. Which “activation” value did it give?
A: inactive: -47.9%

Q: Which “activation” value does the source give for Cc1ccc(CSCC(=O)N2CCN(c3ccc(F)cc3)CC2)cc1 here?
A: inactive: -12.9%

Q: With CC(C)c1ccc(S(=O)(=O)c2nnn3c2nc(NC2CCCC2)c2sccc23)cc1 as the compound, how does the “activation” value read?
A: inactive: -4.51%

Q: Cc1ccc2c(=O)cc(CSc3ccccc3)[nH]c2c1C was tested. Which “activation” value did it give?
A: inactive: -0.844%

Q: How did the “activation” value turn out when COc1ccc(OC)c(NC(=O)c2c(NCc3ccc(C)o3)sc3c2CCC(C)C3)c1 (stereo not drawn) was run?
A: inactive: -37.8%

Q: How did the “activation” value turn out when COc1ccc(C(=O)NCc2ccc3c(c2)CCN3C(=O)c2ccncc2)cc1 was run?
A: inactive: -25.7%

Q: For Cc1cccc(N(CC(=O)Nc2ccc(Br)cc2)S(C)(=O)=O)c1C, which “activation” value is on record?
A: inactive: -14.1%

Q: COc1cccc(CNC(=O)c2ccc(Cn3c(SCc4ccccc4)nc4cccnc43)cc2)c1 was tested. Which “activation” value did it give?
A: inactive: -38.9%

Q: With COc1ccccc1Nc1cc(C(=O)NCCCN(C)c2ccccc2)c2ccccc2n1 as the compound, how does the “activation” value read?
A: inactive: -15.3%

Q: How did the “activation” value turn out when COc1cc(Cl)ccc1Nc1ncc(C(=O)N2CCN(c3ccccc3OC)CC2)c2ccccc12 was run?
A: inactive: -13.3%

Q: Which “activation” value does the source give for Cn1nccc1C(=O)NCc1ccc2c(c1)CCN2C(=O)c1ccc(F)cc1 here?
A: inactive: -20.2%

Q: For Cc1ccc(C(=O)N2CCC(c3c[nH]c4ccccc34)(c3c[nH]c4ccccc34)CC2)cc1, which “activation” value is on record?
A: inactive: -12.8%

Q: How did the “activation” value turn out when CCCCN(CC)CCNC(=O)c1cc2c(-c3ccc(Cl)cc3)nn(C)c2s1 was run?
A: inactive: -9.56%

Q: How did the “activation” value turn out when COc1cc(NC(=O)CCc2c(C)nc3nc(-c4cc(OC)cc(OC)c4)nn3c2C)cc(OC)c1 was run?
A: inactive: -2.73%

Q: Which “activation” value does the source give for Cc1nc2ccccc2n1CC(O)COc1ccc(C(=O)O)cc1 (stereo not drawn) here?
A: inactive: 10.5%

Q: How did the “activation” value turn out when O=C(CSc1nc(-c2ccccc2)nc2c1CCCC2)c1ccc(F)cc1 was run?
A: inactive: -7.16%

Q: How did the “activation” value turn out when Cc1ccc(S(=O)(=O)c2nc(-c3ccco3)oc2SC(C)c2ccccc2)cc1 (stereo not drawn) was run?
A: inactive: -25.9%

Q: For CCC(=O)N1c2ccc(S(=O)(=O)NCc3cccc(OC)c3)cc2CC1C (stereo not drawn), which “activation” value is on record?
A: inactive: -10.8%

Q: CCCCN(Cc1ccccc1)C(=O)c1oc(=O)c2ccccc2c1-c1ccc(C)cc1 was tested. Which “activation” value did it give?
A: inactive: 1.06%

Q: How did the “activation” value turn out when COc1ccccc1/C=C/c1nc(C#N)c(N2CCCCCC2)o1 was run?
A: inactive: 6.5%

Q: Cc1ccc(-n2c3nc(=O)n(C)c(=O)c-3cc3c(Cl)cccc32)c(C)c1 was tested. Which “activation” value did it give?
A: inactive: -8.8%

Q: For Cc1ccc(NS(=O)(=O)c2ccc(NC(=O)N3CCCC3)cc2)cc1C, which “activation” value is on record?
A: inactive: -13.5%

Q: How did the “activation” value turn out when CCC(Sc1nnc(-c2ccc(OC)cc2)c(-c2ccc(OC)cc2)n1)C(=O)NC1CCCCC1 (stereo not drawn) was run?
A: inactive: -14.3%

Q: For CCn1c(C(=O)N2CCC(C(=O)NCCc3ccccc3)CC2)cc2sccc21, which “activation” value is on record?
A: inactive: -9.6%

Q: With CC1CCCN(S(=O)(=O)c2ccc(NC(=O)c3nc(SC(C)C)ncc3Cl)cc2)C1 (stereo not drawn) as the compound, how does the “activation” value read?
A: inactive: -10%
